Changes are numbered by the printed parent chain. Names and notes keep the numbering of the source.
Assays:
human CCR8 (hCCR8) [1] = target: T1, human CCR8 (hCCR8) (human, UniProt P51685 1-355); assay: cell-based or functional assay
human CCR8 (hCCR8) [2] = target: T1, human CCR8 (hCCR8); assay: flow cytometry on HEK293-hCCR8 cells, VHH-Fc; normalized to wild type VHH-1-Fc
human CCR8 (hCCR8) [3] = target: T1, human CCR8 (hCCR8); assay: flow cytometry on HEK293-hCCR8 cells, VHH-Fc
human CCR8 (hCCR8) [4] = target: T1, human CCR8 (hCCR8); assay: flow cytometry on HEK293-hCCR8 cells; normalized to VHH-1-Fc
human CCR8 (hCCR8) [5] = target: T1, human CCR8 (hCCR8); assay: flow cytometry on HEK293-hCCR8 cells; normalized to parental clone
human CCR8 (hCCR8) [6] = target: T1, human CCR8 (hCCR8); assay: flow cytometry on HuT-78 cells, VHH-Fc fusion
human CCR8 (hCCR8) [7] = target: T1, human CCR8 (hCCR8); assay: flow cytometry on HEK293-hCCR8 cells
human CCR8 (hCCR8) [8] = target: T1, human CCR8 (hCCR8); assay: cell-based or functional assay; remark: listed apart in the source
human CCR8 (hCCR8) [9] = target: T1, human CCR8 (hCCR8); assay: flow cytometry on HuT-78 cells, VHH-Fc fusion; normalized to VHH-1
human CCR8 (hCCR8) [10] = target: T1, human CCR8 (hCCR8); assay: flow cytometry on HuT-78 cells, VHH-Fc fusion; normalized to VHH-2
human CCR8 (hCCR8) [11] = target: T1, human CCR8 (hCCR8); assay: flow cytometry on HEK293-hCCR8 cells; normalized to VHH-2-Fc
human CCR8 (hCCR8) [12] = target: T1, human CCR8 (hCCR8); assay: flow cytometry on HEK293-hCCR8 cells, VHH-Fc; remark: listed apart in the source
human CCR8 (hCCR8) [13] = target: T1, human CCR8 (hCCR8); assay: flow cytometry on HEK293-hCCR8 cells, VHH-Fc; normalized to wild type VHH-2-Fc
human CCR8 (hCCR8) [14] = target: T1, human CCR8 (hCCR8); assay: cell-based or functional assay; remark: listed apart in the source

T1 sequence (P51685 whole entry, the tested form may be a part): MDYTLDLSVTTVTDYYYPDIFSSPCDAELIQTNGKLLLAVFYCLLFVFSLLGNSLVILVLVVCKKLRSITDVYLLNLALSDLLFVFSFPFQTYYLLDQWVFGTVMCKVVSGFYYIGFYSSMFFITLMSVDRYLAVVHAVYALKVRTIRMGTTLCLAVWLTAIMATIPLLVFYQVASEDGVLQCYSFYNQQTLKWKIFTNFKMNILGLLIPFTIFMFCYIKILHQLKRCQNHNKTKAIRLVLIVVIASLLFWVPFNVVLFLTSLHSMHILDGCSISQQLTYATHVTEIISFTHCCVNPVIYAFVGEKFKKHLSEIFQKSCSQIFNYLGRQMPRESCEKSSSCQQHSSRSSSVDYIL

B1: VHH-1-Fc (Fc fusion)
chain: QVQLQESGGGLVQAGGSLRLSCVASGSTSSIRRIGWYRQAPGKQRELVARFSSGGGTNYADFVKGRFTISGDNAKNTMYLQMNSLKPEDTAVYYCSARRLLGTSRVDYWGQGTQVTVSS[human IgG1 Fc not given here]
notes: Bivalent; also called VHH-1 (as Fc fusion)
IC50, inhibition of CCL1-induced β-arrestin recruitment (DiscoverX PathHunter eXpress), CCL1 at EC80 (human CCR8 (hCCR8) [1]): < 1 nM
% Bmax (human CCR8 (hCCR8) [2]): 100%
EC50 (human CCR8 (hCCR8) [3]): 1.73 nM
Bmax % (human CCR8 (hCCR8) [4]): 100%
Bmax % (human CCR8 (hCCR8) [5]): 100%
EC50 (human CCR8 (hCCR8) [6]): 2.56 nM
EC50 (human CCR8 (hCCR8) [7]): 2.97 nM
IC50 (nM), inhibition in β-arrestin assay (CCL1 at EC80) (human CCR8 (hCCR8) [8]): 0.34 nM
Normalized Bmax (%) (human CCR8 (hCCR8) [9]): 100%

B2: VHH-1.2-Fc (Fc fusion)
chain: EVQLVESGGGLVQPGGSLRLSCAASGSTSSIRRIGWYRQAPGKGLEWVARFSSGGGTNYADSVKGRFTISGDNSKNTMYLQMNSLRAEDTAVYYCSARRLLGTSRVDYWGQGTTVTVSS[human IgG1 Fc not given here]
notes: Humanized VHH-1, version 2, fused directly to the short hinge of human IgG1 Fc
Bmax % (human CCR8 (hCCR8) [5]): 119%

B3: VHH-1.3-Fc (Fc fusion)
chain: B2 chain with L45R, W47L
notes: Humanized VHH-1, version 3, fused directly to the short hinge of human IgG1 Fc
Bmax % (human CCR8 (hCCR8) [5]): 116%
EC50 (human CCR8 (hCCR8) [6]): 5.46 nM
IC50 (nM), inhibition in β-arrestin assay (CCL1 at EC80) (human CCR8 (hCCR8) [8]): 0.26 nM
Normalized Bmax (%) (human CCR8 (hCCR8) [9]): 88.6%

B4: VHH-5-Fc (Fc fusion)
chain: B1 chain with S96N
Bmax % (human CCR8 (hCCR8) [4]): 104%
EC50 (human CCR8 (hCCR8) [7]): 3.29 nM

B5: VHH-6-Fc (Fc fusion)
chain: B1 chain with V106Y
Bmax % (human CCR8 (hCCR8) [4]): 65.8%
EC50 (human CCR8 (hCCR8) [7]): 3.1 nM

B6: VHH-7-Fc (Fc fusion)
chain: B1 chain with S52T, S96N
Bmax % (human CCR8 (hCCR8) [4]): 105%
EC50 (human CCR8 (hCCR8) [7]): 4.07 nM

B7: VHH-8-Fc (Fc fusion)
chain: B1 chain with G56S, T103L
Bmax % (human CCR8 (hCCR8) [4]): 99.7%
EC50 (human CCR8 (hCCR8) [7]): 4.19 nM

B8: VHH-9-Fc (Fc fusion)
chain: B1 chain with G56S, V106Y
Bmax % (human CCR8 (hCCR8) [4]): 71.1%
EC50 (human CCR8 (hCCR8) [7]): 4.35 nM

B9: VHH-10-Fc (Fc fusion)
chain: B1 chain with G56S, D107N
Bmax % (human CCR8 (hCCR8) [4]): 76.4%
EC50 (human CCR8 (hCCR8) [7]): 1.44 nM

B10: VHH-11-Fc (Fc fusion)
chain: B1 chain with S52T, D107G
Bmax % (human CCR8 (hCCR8) [4]): 63.5%
EC50 (human CCR8 (hCCR8) [7]): 1.82 nM

B11: VHH-12-Fc (Fc fusion)
chain: B1 chain with S52T, Y108S
Bmax % (human CCR8 (hCCR8) [4]): 91.8%
EC50 (human CCR8 (hCCR8) [7]): 1.72 nM

B12: VHH-2.3-Fc (Fc fusion)
chain: EVQLVESGGGLVQPGGSLRLSCAVSGSTSTINRFAWYRQAPGKGRELVAATSSRTSPNYADSVKGRFTFSRDNSKNTVYLQMNSLRAEDTAVYYCQARMAMGSSQVVYWGQGTTVTVSS[human IgG1 Fc not given here]
notes: Humanized VHH-2, version 3, fused directly to the short hinge of human IgG1 Fc
Bmax % (human CCR8 (hCCR8) [5]): 94.4%
EC50 (human CCR8 (hCCR8) [6]): 1.19 nM
Normalized Bmax (%) (human CCR8 (hCCR8) [10]): 88.8%

B13: VHH-2.2-Fc (Fc fusion)
chain: B12 chain with R45L, L47W
notes: Humanized VHH-2, version 2, fused directly to the short hinge of human IgG1 Fc
Bmax % (human CCR8 (hCCR8) [5]): 78.7%

B14: VHH-2.3-1-Fc (Fc fusion)
chain: B12 chain with D72G
notes: Against VHH-2.3 (IMGT): D81G
EC50 (human CCR8 (hCCR8) [6]): 0.23 nM
Normalized Bmax (%) (human CCR8 (hCCR8) [10]): 118%

B15: VHH-2.3-2-Fc (Fc fusion)
chain: B12 chain with D72G, M99K
notes: Against VHH-2.3 (IMGT): D81G, M108K
EC50 (human CCR8 (hCCR8) [6]): 0.12 nM
Normalized Bmax (%) (human CCR8 (hCCR8) [10]): 132%
IC50 (nM), inhibition in β-arrestin assay (CCL1 at EC80) (human CCR8 (hCCR8) [8]): 0.11 nM

B16: VHH-2.3-3-Fc (Fc fusion)
chain: B12 chain with P57L
notes: Against VHH-2.3 (IMGT): P65L
EC50 (human CCR8 (hCCR8) [6]): 1.7 nM
Normalized Bmax (%) (human CCR8 (hCCR8) [10]): 83.3%

B17: VHH-2-Fc (Fc fusion)
chain: QVQLQESGGGLVQAGGSLRLTCAVSGSTSTINRFAWYRQAPGKQRELVAATSSRTSPNYADSVKGRFRFSRDNARSAVYLQMDNLRPEDTAVYFCQARMAMGSSQVVYWGLGTQVTVSS[human IgG1 Fc not given here]
notes: Bivalent; also called VHH-2 (as Fc fusion)
IC50, inhibition of CCL1-induced β-arrestin recruitment (DiscoverX PathHunter eXpress), CCL1 at EC80 (human CCR8 (hCCR8) [1]): < 1 nM
Bmax % (human CCR8 (hCCR8) [11]): 100%
Bmax % (human CCR8 (hCCR8) [5]): 100%
EC50 (human CCR8 (hCCR8) [6]): 0.24 nM
EC50 (human CCR8 (hCCR8) [7]): 1.24 nM
Normalized Bmax (%) (human CCR8 (hCCR8) [10]): 100%
EC50 (human CCR8 (hCCR8) [12]): 1.3 nM
% Bmax (human CCR8 (hCCR8) [13]): 100%

B18: VHH-15-Fc (Fc fusion)
chain: B17 chain with T55G, M99R
Bmax % (human CCR8 (hCCR8) [11]): 95.4%
EC50 (human CCR8 (hCCR8) [7]): 1.16 nM

B19: VHH-16-Fc (Fc fusion)
chain: B17 chain with T55G, A100T
Bmax % (human CCR8 (hCCR8) [11]): 69.5%
EC50 (human CCR8 (hCCR8) [7]): 1.1 nM

B20: VHH-17-Fc (Fc fusion)
chain: B17 chain with Q105W
Bmax % (human CCR8 (hCCR8) [11]): 80.4%
EC50 (human CCR8 (hCCR8) [7]): 1.54 nM

B21: VHH-18-Fc (Fc fusion)
chain: B17 chain with R33A, Q105R
Bmax % (human CCR8 (hCCR8) [11]): 70.7%
EC50 (human CCR8 (hCCR8) [7]): 1.35 nM

B22: VHH-19-Fc (Fc fusion)
chain: B17 chain with T30S, S103V
Bmax % (human CCR8 (hCCR8) [11]): 72%
EC50 (human CCR8 (hCCR8) [7]): 0.66 nM

B23: VHH-20-Fc (Fc fusion)
chain: B17 chain with V107D
Bmax % (human CCR8 (hCCR8) [11]): 72.1%
EC50 (human CCR8 (hCCR8) [7]): 3.26 nM

B24: VHH-21-Fc (Fc fusion)
chain: B17 chain with T55G, G102A
Bmax % (human CCR8 (hCCR8) [11]): 69.1%
EC50 (human CCR8 (hCCR8) [7]): 1.58 nM

B25: VHH-1.3-17-Fc (Fc fusion)
chain: B2 chain with A24V, R32V, L45R, W47L, R50H, N73K, R99I
notes: Against VHH-1.3 (IMGT): R37V, R55H, R108I, N83K
EC50 (human CCR8 (hCCR8) [6]): 0.67 nM
EC50 (nM), ADCC reporter assay, human FcγRIIIa effector cells, HuT-78 target cells (human CCR8 (hCCR8) [14]): 0.24 nM
Fold Induction, ADCC reporter assay, human FcγRIIIa effector cells, HuT-78 target cells (human CCR8 (hCCR8) [14]): 3.92 fold
Normalized Bmax (%) (human CCR8 (hCCR8) [9]): 72.8%

B26: VHH-1.3-19-Fc (Fc fusion)
chain: B2 chain with A24V, R33G, L45R, W47L, R50H, N73K, T114Q
notes: Against VHH-1.3 (IMGT): A25V, R38G, R55H, N83K
EC50 (human CCR8 (hCCR8) [6]): 0.45 nM
EC50 (nM), ADCC reporter assay, human FcγRIIIa effector cells, HuT-78 target cells (human CCR8 (hCCR8) [14]): 0.11 nM
Fold Induction, ADCC reporter assay, human FcγRIIIa effector cells, HuT-78 target cells (human CCR8 (hCCR8) [14]): 5.06 fold
IC50 (nM), inhibition in β-arrestin assay (CCL1 at EC80) (human CCR8 (hCCR8) [8]): 0.59 nM
Normalized Bmax (%) (human CCR8 (hCCR8) [9]): 130%

B27: VHH-1.3-20-Fc (Fc fusion)
chain: B2 chain with A24V, R33G, L45R, W47L, S52I, R99I, T114Q
notes: Against VHH-1.3 (IMGT): A25V, R38G, S57I, R108I
EC50 (human CCR8 (hCCR8) [6]): 0.49 nM
EC50 (nM), ADCC reporter assay, human FcγRIIIa effector cells, HuT-78 target cells (human CCR8 (hCCR8) [14]): 0.65 nM
Fold Induction, ADCC reporter assay, human FcγRIIIa effector cells, HuT-78 target cells (human CCR8 (hCCR8) [14]): 3.98 fold
Normalized Bmax (%) (human CCR8 (hCCR8) [9]): 108%

B28: VHH-1.3-21-Fc (Fc fusion)
chain: B2 chain with A24V, R33G, L45R, W47L, S52I, G71A, T114Q
notes: Against VHH-1.3 (IMGT): A25V, R38G, S57I, G81A
EC50 (human CCR8 (hCCR8) [6]): 1.62 nM
EC50 (nM), ADCC reporter assay, human FcγRIIIa effector cells, HuT-78 target cells (human CCR8 (hCCR8) [14]): 0.19 nM
Fold Induction, ADCC reporter assay, human FcγRIIIa effector cells, HuT-78 target cells (human CCR8 (hCCR8) [14]): 6.68 fold
Normalized Bmax (%) (human CCR8 (hCCR8) [9]): 134%

B29: VHH-1-Fc-DE (Fc fusion)
chain: QVQLQESGGGLVQAGGSLRLSCVASGSTSSIRRIGWYRQAPGKQRELVARFSSGGGTNYADFVKGRFTISGDNAKNTMYLQMNSLKPEDTAVYYCSARRLLGTSRVDYWGQGTQVTVSS[human IgG1 Fc with changes not given here]
EC50, ADCC reporter assay (human FcγRIIIa V158 NFAT-luciferase Jurkat effector cells, HuT-78 target cells) (human CCR8 (hCCR8) [1]): 3.7 pM

B30: VHH-2-Fc-DE (Fc fusion)
chain: QVQLQESGGGLVQAGGSLRLTCAVSGSTSTINRFAWYRQAPGKQRELVAATSSRTSPNYADSVKGRFRFSRDNARSAVYLQMDNLRPEDTAVYFCQARMAMGSSQVVYWGLGTQVTVSS[human IgG1 Fc with changes not given here]
EC50, ADCC reporter assay (human FcγRIIIa V158 NFAT-luciferase Jurkat effector cells, HuT-78 target cells) (human CCR8 (hCCR8) [1]): 7.9 pM
